# Data reported in PubChem BioAssay (Tox21).
# Inconclusive means that the source gave no clear call. Such entries were picked first, then a sample of the others. A potency beside an inconclusive call is a rough fit, not a confirmed value. The source made the active and inactive calls. Unless noted, calls follow the shape of the full dose curve.
# Test system: not listed separately
# Test: qHTS assay to identify small molecule antagonists of the farnesoid-X-receptor (FXR) signaling pathway - cell viability counter screen (AID 743221; active = well fitted cell-killing curve with a large enough effect in the repeat runs, not every such curve was filed as active; inconclusive = weak or mixed curves, or effect the other way; inactive = no such curve, though single readings can be large or run the other way; also: nearly all actives have a fitted effect of over 50% in size)
# Details: FXR-bla HEK293T viability, CellTiter-Glo luminescence, 16 h; activity change, negative = cytotoxicity: at 62.6 µM (top of the series) unless noted
# In short: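 Luminescence from CellTiter-Glo measures cytotoxicity in GeneBLAzer FXR-UAS-bla HEK 293T cells. Cells were exposed to compounds with 50 uM chenodeoxycholic acid (final) for 16 h at 37 C, in wells also used for the reporter readout.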
# % is scaled to controls: 0 for no effect and ±100 for the full control effect; potency is read from the fitted curve at half-maximal effect; tags tell the direction and shape of the fitted curve or compound fluorescence and quenching.
row,Structure (SMILES),Potency
1,Cc1ccc(C(C)C)c(O)c1,"inconclusive: 54.9 µM [falling, single point]"
2,CCCCCCCC(=O)OC,inactive
3,CCO[Si](CCCNC(N)=O)(OCC)OCC,"inconclusive: 11 µM [falling, full curve, poor fit]"

# Target: Vitamin D3 receptor (Homo sapiens) (UniProt P11473)
# Chain of UniProt P11473 (P11473 whole entry, looked up): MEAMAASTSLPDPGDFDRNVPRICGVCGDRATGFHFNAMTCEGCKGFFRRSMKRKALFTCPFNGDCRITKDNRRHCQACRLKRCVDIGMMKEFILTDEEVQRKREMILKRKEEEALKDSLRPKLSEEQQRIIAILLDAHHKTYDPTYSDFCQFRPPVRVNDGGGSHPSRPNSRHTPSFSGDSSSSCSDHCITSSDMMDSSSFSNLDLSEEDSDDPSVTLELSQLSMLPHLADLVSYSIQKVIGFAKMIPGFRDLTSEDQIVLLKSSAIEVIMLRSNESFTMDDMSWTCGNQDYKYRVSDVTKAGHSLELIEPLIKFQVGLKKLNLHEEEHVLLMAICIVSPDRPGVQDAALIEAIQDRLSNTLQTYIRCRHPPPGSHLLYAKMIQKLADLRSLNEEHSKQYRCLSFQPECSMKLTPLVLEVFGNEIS
# Test: qHTS assay to identify small molecule agonists of the vitamin D receptor (VDR) signaling pathway (AID 743222)
# Details: HEK293T VDR-UAS-bla, beta-lactamase FRET ratio, 16 h; activation: at 63.5 µM (top of the series) unless noted
# In short: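 VDR-bla cells were seeded, left 4 h, treated with compounds in DMSO for 16 h, incubated 2 h at RT with B/G FRET substrate, and read for fluorescence.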
Structure (SMILES),Potency,activation
CCCCN(CCN(CCCC)C(=O)N1CCOCC1)C(=O)N1CCOCC1,"inconclusive: 18.8 µM [rising, partial curve]",
COC(=O)CS,inactive,
COc1ccc(C(=O)NCc2ccc(OCCN(C)C)cc2)cc1OC,inactive,
CC(C)(COC(=O)c1ccccc1)COC(=O)c1ccccc1,inactive,
O=CC(=O)c1ccccc1,"inconclusive: 21.9 µM [falling, partial curve, poor fit]",
COC(=O)Nc1nc2ccc(S(=O)c3ccccc3)cc2[nH]1 (stereo not given),"inconclusive: 6.68 µM [rising, full curve, poor fit]",
CC1=C(CC=O)C(C)(C)CCC1,inactive,
CS(=O)(=O)c1ccc(-c2cn3ccccc3n2)cc1,,inconclusive: -9.03%
O=C(O)Cc1ccccc1Nc1c(Cl)cccc1Cl,,inconclusive: -7.15%

# Target: Vitamin D3 receptor (Homo sapiens) (UniProt P11473)
# Test: qHTS assay to identify small molecule antagonists of the vitamin D receptor (VDR) signaling pathway (AID 743223; active = well fitted inhibition curve with a large enough effect in the signal ratio in the repeat runs, not every such curve was filed as active; inconclusive = weak or mixed curves, or effect the other way; inactive = no such curve, though single readings can be large or run the other way; the % refers to the signal ratio)
# Details: VDR-UAS-bla HEK293T, beta-lactamase FRET ratio, 16 h; activity change, negative = inhibition: at 61 µM (top of the series) unless noted
# In short: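 Antagonist mode uses 1alpha,25-dihydroxyvitamin D3 at 3 nM final as stimulus. VDR-bla cells receive compounds in DMSO, incubate 16 h at 37C, then a beta-lactamase FRET substrate for 2 h at room temperature before fluorescence measurement.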
Structure (SMILES),"activity change, negative = inhibition",Potency
CCOCC(=O)O,inconclusive: -0.28%,
CC(C)(C)NCCNC(C)(C)C,,"inconclusive: 0.174 µM [fluorescent, partial curve, poor fit]"
CC(COCC(C)OC(=O)c1ccccc1)OC(=O)c1ccccc1 (stereo not given),inconclusive: 2.24%,
COc1ncnc(NS(=O)(=O)c2ccc(N)cc2)c1OC,inconclusive: 3.45%,
CCCCN(CCN(CCCC)C(=O)N1CCOCC1)C(=O)N1CCOCC1,,inactive
COC(=O)CS,inconclusive: 24.4%,
Cn1cnc2ncnc(N)c21,,inactive
Cc1ccc(C(C)C)c(O)c1,inconclusive: -42.3%,
Cc1c(F)c(N2CCNC(C)C2)cc2c1c(=O)c(C(=O)O)cn2C1CC1 (stereo not given),,inactive
C=CC(=C)CCCC(C)(C)OC(C)=O,inconclusive: 0.911%,
O=C(O)Cn1cnnn1,,inactive
O=CC(=O)c1ccccc1,inconclusive: 3.05%,
C[Si]1(C)O[Si](C)(C)O[Si](C)(C)O[Si](C)(C)O[Si](C)(C)O1,inconclusive: 2.11%,
Cc1ccccc1Br,,inactive
CC(C)(C)CC(=O)OCC(=O)[C@@]1(O)CC[C@H]2[C@@H]3CCC4=CC(=O)C=C[C@]4(C)[C@H]3[C@@H](O)C[C@@]21C,inconclusive: 21.7%,
CC1=C(CC=O)C(C)(C)CCC1,,"inconclusive: 0.347 µM [inhibitor, full curve, poor fit]"
Cc1nc2ccccc2s1,inconclusive: 4.11% [at 78.8 µM],
CN(N=O)C(=O)N[C@@H]1[C@@H](O)[C@H](O)[C@@H](CO)O[C@@H]1O,inconclusive: -17.9%,
